Laboratory results reported in the antibiotic and cytotoxicity screens of Wong et al. (2023).
This is one part of the list.

Legend:
HSkMC = human skeletal muscle cells; assay: cytotoxicity call (relative viability < 0.9); conditions: 10 µM
HepG2 = assay: cytotoxicity call (relative viability < 0.9); conditions: 10 µM
S. aureus RN4220 = assay: growth inhibition call (relative growth <= 0.2); conditions: 50 µM

| SMILES | cytotoxicity call (HSkMC) | cytotoxicity call (HepG2) | growth inhibition call (S. aureus RN4220) |
| --- | --- | --- | --- |
| c1ccc(/N=C2\S/C(=N\C3CCCCC3)C3=C2CCCC3)cc1 | inactive | inactive | inactive |
| C[C@@H]1CN([C@H](C)CO)C(=O)c2cc(NC(=O)CCCN(C)C)ccc2O[C@@H](C)CCCCO[C@@H]1CN(C)Cc1ccc(C(F)(F)F)cc1 | inactive | inactive | inactive |
| C[C@H](CO)N1C[C@H](C)[C@H](CN(C)S(=O)(=O)c2cccs2)Oc2ncc(C#Cc3cccc(F)c3)cc2C1=O | inactive | inactive | inactive |
| COc1ccc(NC(=O)N(C)C[C@@H]2OCCCC[C@H](C)Oc3ccc(NC(=O)Nc4ccc(F)cc4)cc3C(=O)N([C@H](C)CO)C[C@@H]2C)cc1 | inactive | inactive | inactive |
| C[C@H]1CCCCO[C@H](CN(C)C(=O)Nc2ccc(C(F)(F)F)cc2)[C@@H](C)CN([C@@H](C)CO)C(=O)c2cc(NC(=O)Nc3ccccc3)ccc2O1 | inactive | inactive | inactive |
| C[C@H]1CN([C@@H](C)CO)C(=O)c2cc(NS(=O)(=O)c3ccc(F)cc3)ccc2O[C@@H]1CN(C)Cc1ccc(-c2ccccc2)cc1 | inactive | active | inactive |
| Cc1noc(C)c1S(=O)(=O)Nc1ccc2c(c1)C(=O)N([C@@H](C)CO)C[C@H](C)[C@H](CN(C)S(=O)(=O)c1ccc(Cl)cc1)O2 | inactive | inactive | inactive |
| Cc1noc(C)c1NC(=O)Nc1ccc2c(c1)C(=O)N([C@@H](C)CO)C[C@H](C)[C@H](CN(C)CC1CCCCC1)OCCCC[C@H](C)O2 | inactive | inactive | inactive |
| C[C@@H]1CN([C@@H](C)CO)C(=O)c2cc(NS(=O)(=O)c3cn(C)cn3)ccc2O[C@H]1CN(C)CC1CCCCC1 | inactive | inactive | inactive |
| C=CCCCCCCCCC=O | inactive | inactive | inactive |
| Cc1noc(C)c1S(=O)(=O)Nc1ccc2c(c1)CC(=O)N([C@H](C)CO)C[C@@H](C)[C@@H](CN(C)S(=O)(=O)c1c(C)noc1C)O2 | inactive | inactive | inactive |
| C[C@H](CO)N1C[C@H](C)[C@@H](CN(C)C(=O)Nc2ccccc2)Oc2c(NC(=O)c3cnccn3)cccc2C1=O | inactive | inactive | inactive |
| CN1CCN(C(=O)C[C@H]2C=C[C@@H](NC(=O)Cc3ccccn3)[C@H](CO)O2)CC1 | inactive | inactive | inactive |
| COc1ccc(S(=O)(=O)N(C)C[C@@H]2Oc3c(NS(=O)(=O)c4ccc(F)cc4)cccc3C(=O)N([C@H](C)CO)C[C@H]2C)cc1 | inactive | inactive | inactive |
| O=C(C[C@H]1CC[C@H](NC(=O)c2cccnc2)[C@H](CO)O1)NCCN1CCCCC1 | inactive | inactive | inactive |
| Cc1ccc(S(=O)(=O)Nc2ccc3c(c2)C(=O)N([C@@H](C)CO)C[C@H](C)[C@@H](CN(C)Cc2ccc(C(=O)Nc4ccccc4N)cc2)OCCCC[C@@H](C)O3)cc1 | inactive | inactive | inactive |
| C[C@H](CO)N1C[C@H](C)[C@H](CN(C)Cc2ccc(-c3ccccc3)cc2)Oc2ccc(NC(=O)Nc3ccc(F)cc3)cc2CC1=O | active | active | inactive |
| Cc1ccc(S(=O)(=O)Nc2ccc3c(c2)C(=O)N([C@@H](C)CO)C[C@H](C)[C@H](CN(C)C(=O)NC(C)C)O3)cc1 | inactive | inactive | inactive |
| COc1ccc(S(=O)(=O)Nc2ccc3c(c2)C(=O)N([C@H](C)CO)C[C@H](C)[C@@H](CN(C)Cc2ccc(Cl)c(Cl)c2)OCCCC[C@@H](C)O3)cc1 | inactive | active | inactive |
| CN1CCN(c2c(F)cc3c(=O)c(C(=O)O)cn(CCF)c3c2F)CC1 | inactive | inactive | active |
| C[C@@H]1CCCCO[C@H](CN(C)C(=O)NC2CCCCC2)[C@@H](C)CN([C@@H](C)CO)C(=O)c2cc(NC(=O)C3CCCCC3)ccc2O1 | inactive | inactive | inactive |
| C[C@H](CO)N1C[C@H](C)[C@@H](CN(C)Cc2ccc(Oc3ccccc3)cc2)Oc2ccc(NC(=O)Nc3ccc(F)cc3)cc2CC1=O | inactive | active | inactive |
| C[C@H](CO)N1C[C@H](C)[C@@H](CN(C)C(=O)Nc2ccc(C(F)(F)F)cc2)Oc2ccc(NC(=O)NC3CCCCC3)cc2CC1=O | inactive | inactive | inactive |
| C[C@@H]1CN([C@H](C)CO)S(=O)(=O)c2ccc(-c3ccccc3F)cc2O[C@H]1CN(C)Cc1cncnc1 | inactive | inactive | inactive |
| COc1ccc(NC(=O)Nc2ccc3c(c2)C(=O)N([C@H](C)CO)C[C@@H](C)[C@@H](CN(C)S(=O)(=O)c2ccc(F)cc2)OCCCC[C@H](C)O3)cc1 | inactive | inactive | inactive |

| SMILES | cytotoxicity call (HSkMC) | cytotoxicity call (HepG2) | growth inhibition call (S. aureus RN4220) |
| --- | --- | --- | --- |
| Cc1ccc(S(=O)(=O)Nc2ccc3c(c2)C(=O)N([C@H](C)CO)C[C@H](C)[C@H](CN(C)S(=O)(=O)c2ccc(F)cc2)OCCCC[C@H](C)O3)cc1 | inactive | inactive | inactive |
| CC(C)N1CC[C@@H](CN(C)Cc2ccc(C(=O)O)cc2)Oc2cc(-c3ccc(C(F)(F)F)cc3)ccc2S1(=O)=O | inactive | inactive | inactive |
| Cc1ccc2n[nH]c(C(=O)N3CCN4C(=O)CNC(=O)[C@@H]4C3)c2c1 | inactive | inactive | inactive |
| Cc1nnn2c1COC[C@H](CNS(C)(=O)=O)C2 | inactive | inactive | inactive |
| C[C@H]1CN([C@@H](C)CO)C(=O)c2cccc(NC(=O)Nc3ccc(C(F)(F)F)cc3)c2O[C@H]1CN(C)C(=O)Nc1ccc(F)cc1 | inactive | active | inactive |
| COc1ccc(NC(=O)Nc2ccc3c(c2)C(=O)N([C@@H](C)CO)C[C@H](C)[C@@H](CN(C)Cc2ccc(C(F)(F)F)cc2)O3)cc1 | inactive | active | inactive |
| CCc1c(O)nc2ccccn2c1=O | inactive | inactive | inactive |
| C[C@H]1CCCCO[C@H](CN(C)C(=O)C2CCCCC2)[C@@H](C)CN([C@@H](C)CO)C(=O)c2cc(NS(=O)(=O)c3cccs3)ccc2O1 | inactive | inactive | inactive |
| C[C@@H]1CN([C@@H](C)CO)C(=O)c2cccc(NC(=O)Nc3cccc4ccccc34)c2O[C@H]1CN(C)S(=O)(=O)c1ccc(OC(F)(F)F)cc1 | inactive | active | inactive |
| COC1OC2OC3(C)CCC4C(C)CCC(C1C)C24OO3 (configuration not stated) | inactive | inactive | inactive |
| COC(=O)c1cn(CC(=O)N2CCOCC2)nn1 | inactive | inactive | inactive |
| Cc1ccc(S(=O)(=O)Nc2ccc3c(c2)C(=O)N([C@H](C)CO)C[C@H](C)[C@@H](CN(C)S(=O)(=O)c2ccc(C)cc2)OCCCC[C@@H](C)O3)cc1 | inactive | inactive | inactive |
| COC(=O)OCOc1c2n(ccc1=O)N([C@@H]1c3ccccc3SCc3c1ccc(F)c3F)[C@@H]1COCCN1C2=O | inactive | inactive | inactive |
| C[C@@H]1CN([C@H](C)CO)C(=O)CCCn2nncc2CO[C@H]1CN(C)C(=O)c1ccc(N2CCN(C)CC2)cc1 | inactive | inactive | inactive |
| CC[N+](CC)(CC)CCOc1cccc(OCC[N+](CC)(CC)CC)c1OCC[N+](CC)(CC)CC.[I-].[I-].[I-] | inactive | inactive | inactive |
| COc1ccc(S(=O)(=O)Nc2ccc3c(c2)C(=O)N([C@@H](C)CO)C[C@H](C)[C@@H](CN(C)C(=O)Nc2ccc4c(c2)OCO4)OCCCC[C@@H](C)O3)cc1 | inactive | inactive | inactive |
| C[C@@H]1CCCCO[C@H](CN(C)C(=O)Nc2ccc(C(F)(F)F)cc2)[C@@H](C)CN([C@@H](C)CO)C(=O)c2cc(NC(=O)Cc3ccccc3)ccc2O1 | inactive | inactive | inactive |
| O=C(CCCCCNC(=O)OCCCOc1ccc(C2=N[C@]3(Cc4ccccc4)C(=O)N(Cc4ccccc4)Cc4ccccc4[C@@H]3O2)cc1)NO | inactive | inactive | inactive |
| Cc1c(/C=N/O)sc2ccccc12 | inactive | inactive | inactive |
| COc1ccc(NC(=O)Nc2ccc3c(c2)C(=O)N([C@H](C)CO)C[C@H](C)[C@@H](CN(C)C(=O)Nc2ccccc2)OCCCC[C@@H](C)O3)cc1 | inactive | inactive | inactive |
| Cc1noc(C)c1S(=O)(=O)N(C)C[C@@H]1Oc2ccc(NC(=O)CCCN(C)C)cc2C(=O)N([C@@H](C)CO)C[C@@H]1C | inactive | inactive | inactive |
| C[C@@H]1CN([C@@H](C)CO)C(=O)c2cccc(NC(=O)C3CCCCC3)c2O[C@H]1CN(C)Cc1ccc(Cl)c(Cl)c1 | inactive | inactive | inactive |
| COc1ccc(S(=O)(=O)Nc2cccc3c2O[C@H](CN(C)S(=O)(=O)c2cn(C)cn2)[C@@H](C)CN([C@@H](C)CO)C3=O)cc1 | inactive | inactive | inactive |
| CCCNC(=O)N(C)C[C@H]1Oc2cc(C#Cc3ccccn3)ccc2S(=O)(=O)N([C@H](C)CO)C[C@H]1C | inactive | inactive | inactive |
